Laboratory results: the supplement of paper PMC3334620
Whole data set: some 33,000 sequences, median “E-score (-0.5 to 0.5)” near -0.056, cut for the highest 2% near 0.38. Some of the results follow.

What follows are sequences tested against Stb4 (UniProt P50104) (assay: PBM E-score (8-mer binding enrichment) (E-score (-0.5 to 0.5)); higher = stronger / more preferred TF binding; most listed sequences are background and not binding sites). Conditions: protein concentration: 200 nM; construct: GST-DNA-binding domain.
In short: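 Full-length yeast transcription factors or their DNA-binding domains, GST-tagged and expressed with PURExpress, were applied at about 100-200 nM to universal all-10-mer Agilent arrays. These arrays had been made double-stranded by primer extension on fresh or once-stripped slides. Detection used fluorescent anti-GST, normalisation used masliner, and E-scores for ungapped eight-base words pooled with reverse complements came from the Universal PBM Analysis Suite.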

In order of rising “PBM E-score” value:
1. ATGCCTTA  -0.32
2. ACGTGTGC  -0.303
3. CTATATAG  -0.279
4. AATCATGT  -0.272
5. CTGTCATA  -0.259
6. ACAGAGCG  -0.258
7. GGGGGGCA  -0.256
8. ACAGTGAG  -0.254
9. AAGTAGCT  -0.251
10. GTTGTATA  -0.245
11. CCATGGCA  -0.225
12. ACGGCCCT  -0.219
13. CCAAGCAA  -0.218
14. AGTCACCA  -0.213
15. CCAACTAA  -0.21
16. CAGGAAGG  -0.208
17. GCGTGTGA  -0.207
18. CTCAACAG  -0.203
19. CTTAGACC  -0.199
20. AATGGCAG  -0.196
21. AGAATTGA  -0.194
22. AGGGGCTC  -0.194
23. AGAGGGAG  -0.191
24. AGCTTCGA  -0.189
25. AAGAGGCA  -0.186
26. CAGGGGCG  -0.182
27. ACTTAAGT  -0.18
28. GCTAAATA  -0.175
29. AGTTAGAG  -0.174
30. ACCCCAGT  -0.174
31. TAAGCGTA  -0.172
32. TAGGCGCA  -0.171
33. AAGTTGGA  -0.167
34. CAGATTCA  -0.165
35. CTAAGCTC  -0.163
36. TTCATGAA  -0.162
37. ATATTTGA  -0.16
38. CCACTTCA  -0.155
39. TACCCTCA  -0.153
40. ACTCGAGG  -0.152
41. CCCATCAC  -0.151
42. ACCCATGG  -0.149
43. AGGAGGCG  -0.149
44. AGAACAAG  -0.146
45. TCATACGA  -0.145
46. ACCGTGCA  -0.142
47. ACAGAACA  -0.141
48. AATTACCT  -0.14
49. CCAGCGCA  -0.138
50. CTAGCTTA  -0.136
51. CAGGTAGA  -0.135
52. CAATATCA  -0.134
53. GCTCACTA  -0.134
54. AGGTGACA  -0.128
55. GCCCATGA  -0.124
56. CTTCCATA  -0.122
57. ACTTGTAC  -0.117
58. ACAACCTC  -0.114
59. CTTTCATC  -0.112
60. AGCTCCCA  -0.112
61. GTGGTAAA  -0.111
62. ACGGGCTG  -0.109
63. ATCGCAAG  -0.109
64. CCTGCTAC  -0.106
65. ATCAAACG  -0.105
66. AGAAAAAT  -0.104
67. GTTAGTGA  -0.102
68. GAAGACGC  -0.1
69. CATCAGAC  -0.0986
70. CAGTCTAA  -0.0962
71. GACGATTA  -0.0954
72. ATTACTGC  -0.0877
73. CTTAGCTC  -0.0849
74. TCTGGACA  -0.0785
75. AGAATGGA  -0.0768
76. GGGCATTA  -0.0753
77. GAGGCACA  -0.0729
78. GCCCAGTA  -0.0725
79. ATGGTGCG  -0.0712
80. CACGGTCC  -0.0699
81. ACTGTCTC  -0.0619
82. GTCAGAAC  -0.0619
83. AGTTAACG  -0.0609
84. AGATGATG  -0.0541
85. TGACCCCA  -0.0526
86. CTGTGTGA  -0.051
87. ACACATCA  -0.0472
88. GGTCCTCA  -0.0447
89. CGCTTATC  -0.0429
90. AAAAACTC  -0.0412
91. GTAGAGAA  -0.0411
92. AACATCTA  -0.0411
93. GCGATCGA  -0.0399
94. CACTTAAG  -0.0395
95. ATTGTGCG  -0.037
96. CTTTAGCA  -0.0369
97. ACATGTGG  -0.0365
98. GCAGAAAA  -0.0365
99. CACGTGCC  -0.0363
100. GTCGTTTA  -0.034
101. CTATCTTA  -0.0301
102. CCATGAGG  -0.0279
103. CATGAGTA  -0.0198
104. CCTTCCAC  -0.0187
105. AGCCTGCA  -0.0179
106. CAAATGTA  -0.016
107. AACGACCT  -0.0159
108. ATCACAGC  -0.0153
109. GCACGCCC  -0.00802
110. GTTACAAA  -0.00155
111. ATGGTAGC  0.00743
112. AAAATCTT  0.00936
113. GAAACAGC  0.0269
114. ACGCCCAT  0.0322
115. GAGGGGAC  0.0324
116. CGTTAGGA  0.0354
117. GCCTTAAA  0.0358
118. AATGGGCC  0.0391
119. GACGAACC  0.0535
120. CCAGAATA  0.0555
121. ATTGAAAA  0.0585
122. AAGGTACC  0.0589
123. CCTCTTCC  0.0657
124. CGAGAAGC  0.0689
125. ACTCCGCA  0.0719
126. GACAGCGC  0.0726
127. AGGATTCG  0.0771
128. CACTATTA  0.0788
129. CCCTGATC  0.0808
130. ACCGGTCG  0.0835
131. GGCTAGCC  0.0852
132. GAGTTTGC  0.0913
133. AGGTTACT  0.0938
134. CTGTTTCC  0.0989
135. CGGTTTAA  0.101
136. GAGCTGAC  0.101
137. GATTCTGC  0.106
138. CGCGGTTC  0.115
139. AATCACAC  0.122
140. CGATTAAC  0.125
141. CATTGCGG  0.129
142. ACCCGTAG  0.13
143. GGACAATA  0.132
144. GGAGTTAC  0.142
145. CGCGGCCC  0.146
146. GCGGAGTA  0.146
147. CCGCTAAC  0.152
148. ACATAACA  0.157
149. CACCCCGG  0.163
150. ACAGACCG  0.164
151. CCCGTCTA  0.167
152. GGCCGTTA  0.17
153. GCTAATTA  0.173
154. CACAATCG  0.181
155. CGATATTA  0.2
156. ATAGCGGA  0.205
157. AATGATCC  0.207
158. ACCCTTCC  0.227
159. CAGCGGAA  0.236
160. CCTTGCCG  0.241
161. AAAGTCGG  0.269
162. CATTACCG  0.277
163. ACCGGCAC  0.281
164. CCGGGTGC  0.313
165. AGCGGAAC  0.316
166. ATCCCGAT  0.342
167. TCGGTAGA  0.363
168. CGGAAGAC  0.367
169. ACCCGGGA  0.378
170. ACTTCGGC  0.392
171. CCGACCCG  0.407
172. ATTGCCGA  0.451
